In all, about 150,000 compounds went through this assay and about 540 (0.36%) showed an effect of 50% or more. Some of the results follow.
These compounds were tested on Plasmodium falciparum (assay: Primary screen in NF54 nanoGlo assay, in single point, at 2uM, 72h; a lower Z score goes with more inhibition). Details: timepoint 72 hour.
Assay type: functional, Erythrocyte
For CC(C)n1cc(CN2CC[C@@]3(CCCN(C)C3)C2)cn1, the “% Inhibition” value was 0% and the Z score was -0.04.
O=C(NC1CCCCC1)N1CC[C@H](N2C(=O)COC2=O)C1 was tested, and the “% Inhibition” value was 1% and the Z score was -0.14.
Cc1nc(NC(=O)c2ccn(C)c(=O)c2)ccc1Br was tested, and the “% Inhibition” value was -3% and the Z score was 0.37.
In the case of O=C(C1CCCC1)N1CCC2(CC1)C[C@@H](Cc1cccc(F)c1)CCO2, the “% Inhibition” value is reported as -3% and the Z score is reported as 0.61.
COCC[C@H]1CN(Cc2cc(=O)n3nc(C)cc3[nH]2)CCO1 was tested, and the “% Inhibition” value was 7% and the Z score was -1.19.
For Cc1cnn(CCO[C@@H]2CCCCO2)c1, the “% Inhibition” value was 2% and the Z score was -0.35.
With COC[C@H]1CCCCN(c2nc(-c3ccc(F)cc3)no2)C1 the “% Inhibition” value was -14% and the Z score was 1.9.
With CC1=CCN(C[C@H](O)COc2ccc3c(c2)OCO3)CC1 the “% Inhibition” value was -12% and the Z score was 2.3.
For CCOC(=O)CN(CCOC)CC(=O)NC1(C#N)CCCCC1, the “% Inhibition” value was -2% and the Z score was 0.44.
For CC[C@@H](CO)NC(=O)Nc1ccc(OCC(F)(F)F)c(F)c1, the “% Inhibition” value was -8% and the Z score was 0.74.
Cc1nn(C)c(C)c1S(=O)(=O)Nc1ccccc1CCc1nc2ccccc2n1C was tested, and the “% Inhibition” value was 7% and the Z score was -0.78.
O=C(CC[C@H]1CCCN(Cc2cc3ccccc3o2)C1)N1CCN(c2ccccn2)CC1 was tested, and the “% Inhibition” value was -4% and the Z score was 0.83.
With O=C(C1CC1c1ccccc1F)N(Cc1ccco1)c1cccc(F)c1 (stereo not given) the “% Inhibition” value was -10% and the Z score was 0.87.
In the case of CC1CC(c2ccccc2)CN1c1cc(N2CCOCC2)ncn1 (stereo not given), the “% Inhibition” value is reported as 5% and the Z score is reported as -0.64.
In the case of CC(C)C[C@@H](NC(=O)C1(C)CC1(Cl)Cl)C(=O)O (stereo not given in full), the “% Inhibition” value is reported as 1% and the Z score is reported as -0.13.
In the case of Cc1cc(NC(=O)c2ccc(Br)c(Cl)c2)nc(=O)[nH]1, the “% Inhibition” value is reported as 0% and the Z score is reported as -0.03.
In the case of Cc1ccc(NC(=O)Cn2c(C)cc3nc4n(c(=O)c32)CCC4)cc1, the “% Inhibition” value is reported as 4% and the Z score is reported as -0.42.
O=C(Nc1ccnn1C1CCC1)[C@H]1C[C@@H]1c1cccc(O)c1 was tested, and the “% Inhibition” value was -8% and the Z score was 0.97.
COc1ccc(F)c(F)c1CN1C[C@H](c2ccc(C)cc2)[C@@H](N(C)C)C1 was tested, and the “% Inhibition” value was -11% and the Z score was 1.46.
With O=C(c1sccc1Cl)N1CC[C@@]2(CCCN(Cc3cccnc3)C2=O)C1 the “% Inhibition” value was 1% and the Z score was -0.26.
For O=C(c1cscn1)N1CCC2C(CCC(=O)N2C2CC2)C1 (stereo not given), the “% Inhibition” value was -7% and the Z score was 0.76.
For Cc1cc(=O)cc(C(=O)NC(Cc2ccncc2)[C@H]2C[C@H](O)C2)n1C (stereo not given in full), the “% Inhibition” value was 10% and the Z score was -1.19.
CCN(CC)[C@H]1CCOC2(CCN(C(=O)c3ccc4ccccc4n3)CC2)C1 was tested, and the “% Inhibition” value was -12% and the Z score was 1.5.
With CC[C@H]1CN(c2cncc(C(N)=O)n2)CCN1C the “% Inhibition” value was 7% and the Z score was -0.88.
With CC(=O)N1CCC[C@H](CNC(=O)N[C@H]2CC[C@H](CO)CC2)C1 the “% Inhibition” value was 1% and the Z score was -0.1.
With O=C(CN1C(=O)N[C@]2(CCOC2)C1=O)N1CCC(c2ccccc2)=N1 the “% Inhibition” value was -1% and the Z score was 0.2.
For Cc1ccc(Cn2cccc2C(=O)C(=O)Nc2ccc(F)cc2Cl)cc1C, the “% Inhibition” value was -4% and the Z score was 0.41.
For CC(C)(CNC(=O)C1CC1C(=O)O)c1ccccc1F (stereo not given), the “% Inhibition” value was -4% and the Z score was 0.7.
For O=C(NC1CCCCC1)c1cc2c(Cl)ccc3c2n1CCO3, the “% Inhibition” value was 38% and the Z score was -5.57.
For Cc1noc(C)c1C(C)NC(=O)NCCCC1CCCCO1 (stereo not given), the “% Inhibition” value was -17% and the Z score was 1.4.
In the case of CCC(=O)N(Cc1ccc(C)cc1)c1ccc(CC(=O)NCCOC)cc1, the “% Inhibition” value is reported as -8% and the Z score is reported as 1.15.
Cc1ccc(C(=O)N2CC[C@H](Oc3cc(N4CCCC4)ncn3)C2)cn1 was tested, and the “% Inhibition” value was -10% and the Z score was 1.46.
For O=C(N[C@@H]1CCCc2ccc(F)cc21)C1CCCCN1C(=O)c1ccco1 (stereo not given in full), the “% Inhibition” value was 17% and the Z score was -1.7.
With O=C(NCc1ccncc1)C1CCN(c2ncnc3c2oc2ccccc23)CC1 the “% Inhibition” value was -13% and the Z score was 1.79.
For CCc1ccc(Cn2ncnc2[C@@H]2CCCCN2)cc1, the “% Inhibition” value was -7% and the Z score was 1.35.
For COCC(=O)Nc1cc(C(=O)N(C[C@H]2CCC(=O)N2)C(C)C)c2c(c1)ncn2Cc1ccc(F)cc1, the “% Inhibition” value was -5% and the Z score was 0.86.
CCCCCOCC(=O)N1CC([C@H](C)O)C1 was tested, and the “% Inhibition” value was 5% and the Z score was -0.66.
With COc1cc(O)ccc1-c1c(C#N)c(N)nc2c1Cc1c(O)cccc1-2 the “% Inhibition” value was 5% and the Z score was -0.61.
Oc1ccc(-c2cnn(-c3nnn[nH]3)c2)c2ccccc12 was tested, and the “% Inhibition” value was -5% and the Z score was 0.48.
O=S(=O)(N(CCO)CCCO)C1(COCc2ccccc2)CC1 was tested, and the “% Inhibition” value was -10% and the Z score was 1.02.
In the case of O=C(O)c1cccnc1NC[C@@H](O)CN1CCc2ccccc2C1, the “% Inhibition” value is reported as -10% and the Z score is reported as 1.91.
CN(C)S(=O)(=O)N1C[C@H]2CC[C@@H](C1)N(C(=O)CCc1cccc(F)c1)C2 was tested, and the “% Inhibition” value was -13% and the Z score was 1.68.
With CC(C)n1cc(CNC[C@@H]2C[C@H](CO)N(C)[C@@H]2c2ccccc2F)cn1 the “% Inhibition” value was 1% and the Z score was -0.18.
For CC1(C)N=C(c2ccc(F)cc2)C(=O)N1CC(=O)N1CCN(c2ccc(F)cc2)CC1, the “% Inhibition” value was 28% and the Z score was -3.13.
O=C(C1CCN(C2CCN(CCCc3ccccc3)CC2)CC1)N1CCC1 was tested, and the “% Inhibition” value was -10% and the Z score was 1.64.
CC1(C)C2CC=C(COCC(O)CNCC3COc4ccccc4O3)C1C2 (stereo not given) was tested, and the “% Inhibition” value was -10% and the Z score was 1.04.
COC(=O)CC(C)(C)CC(=O)N(C)[C@@H](C)c1ccc(F)c(F)c1 was tested, and the “% Inhibition” value was -9% and the Z score was 1.21.
For O[C@H]1CC[C@@H]1n1cc(-c2cccc(Cl)c2)nn1, the “% Inhibition” value was -8% and the Z score was 0.71.
For c1ccc2c(c1)OC[C@@H](c1nc3nccc(-c4ccncc4)n3n1)O2, the “% Inhibition” value was -10% and the Z score was 1.28.
With O=C(NC1CC1c1c(F)cccc1F)c1ccncc1Cl (stereo not given) the “% Inhibition” value was 0% and the Z score was 0.01.
With Cc1ccc(C(C)NC(C)c2nnnn2C)cc1C (stereo not given) the “% Inhibition” value was -8% and the Z score was 0.84.
Cc1ccc(Oc2cc(C)nc3ncnn23)cn1 was tested, and the “% Inhibition” value was -8% and the Z score was 0.78.
In the case of Cc1ccc(C)c(CC(=O)N2CC[C@@H](N)C2)c1, the “% Inhibition” value is reported as 2% and the Z score is reported as -0.22.
O=c1c2cccc(F)c2ncn1C1(C2CCCC2)CC1 was tested, and the “% Inhibition” value was -18% and the Z score was 2.36.
In the case of COCC(=O)N1CCc2cc(NCc3ncc(Cl)s3)ccc21, the “% Inhibition” value is reported as -11% and the Z score is reported as 1.16.
For CCCn1nc(C(=O)N2CCCc3cccc(Cl)c32)ccc1=O, the “% Inhibition” value was -8% and the Z score was 1.47.
COc1cc(OC)nc(Oc2cccc3cccnc23)n1 was tested, and the “% Inhibition” value was -9% and the Z score was 1.08.
CC(=O)N1CCO[C@@H](CNc2nnc(C(C)(C)C)o2)C1 was tested, and the “% Inhibition” value was -1% and the Z score was 0.19.
Cc1cc(CNc2ncccc2F)on1 was tested, and the “% Inhibition” value was -6% and the Z score was 0.85.
For O=C(N[C@@H]1C[C@H](Cn2cc(C3CC3)nn2)[C@@H](O)[C@H]1O)c1cccnc1, the “% Inhibition” value was 18% and the Z score was -2.04.
In the case of COc1cccc(CCCN2CCC[C@@H]2C(=O)O)c1, the “% Inhibition” value is reported as -18% and the Z score is reported as 2.1.
For C[C@@H](CN1CCCCCC1)NCCc1cnn(C)c1, the “% Inhibition” value was -1% and the Z score was 0.16.
For CCCc1nnc(N2CCCO[C@@H](CN3CCOCC3)C2)o1, the “% Inhibition” value was 4% and the Z score was -0.62.
In the case of CC(=O)Nc1ccc(S(=O)(=O)NCc2ccc(C(=O)NC3CCC(C)CC3)cc2)cc1 (stereo not given), the “% Inhibition” value is reported as 39% and the Z score is reported as -5.3.
With O=C(Nc1cccc(Cl)c1)Nc1cccc(-c2cnc3n2CCC3)c1 the “% Inhibition” value was 38% and the Z score was -6.91.
Cc1ccc(-c2nc3cc(C(=O)N4CCC([C@H](C)C(=O)NC5CCCC5)CC4)ccc3o2)cc1 was tested, and the “% Inhibition” value was -8% and the Z score was 1.17.
For CC(=O)N[C@H]1C[C@@H](c2ccccc2OCCO)O[C@@H](C2CCCCC2)C1, the “% Inhibition” value was 4% and the Z score was -0.42.
With COCC(=O)N(C)[C@@H](C(N)=O)c1cccc(Br)c1 the “% Inhibition” value was -8% and the Z score was 1.22.
In the case of Oc1cccc(O)c1CNc1ncnc2c1CCCC2, the “% Inhibition” value is reported as 1% and the Z score is reported as -0.13.
With CCn1nc(C)cc1C(=O)N[C@H]1CC2(CCCCC2)Oc2ccccc21 the “% Inhibition” value was -13% and the Z score was 1.49.
In the case of Cc1nnnn1CCc1cc(Cl)c2c(c1)OCCCO2, the “% Inhibition” value is reported as -18% and the Z score is reported as 2.32.
For CCOC(C)c1noc(CN2CC(c3ccccc3Cl)OCC2(C)C)n1 (stereo not given), the “% Inhibition” value was -8% and the Z score was 0.89.
With COc1cccc(N2CCN(C(=O)[C@H]3CCCN(C(=O)c4ccc(Cl)cc4)C3)CC2)c1 the “% Inhibition” value was -5% and the Z score was 0.7.
For Cn1nc(NC(=O)N2CC[C@H](O)C2(C)C)cc1C1CC1, the “% Inhibition” value was 16% and the Z score was -2.03.
With Cc1ccc(Cn2cc(S(=O)(=O)c3cccc(Cl)c3)c(=O)c3cc(F)c(N4CCOCC4)cc32)cc1 the “% Inhibition” value was -17% and the Z score was 2.12.
In the case of CN(C)S(=O)(=O)N1C[C@H]2CC[C@@H](C1)N(C(=O)Cc1cccs1)C2, the “% Inhibition” value is reported as -5% and the Z score is reported as 0.84.
For CN1CC[C@H](CNC(=O)c2ccc(Oc3ccccc3)o2)C1, the “% Inhibition” value was 0% and the Z score was -0.05.
In the case of Cc1noc(CCN[C@H]2CCCN(C(=O)OC(C)(C)C)C2)n1, the “% Inhibition” value is reported as -3% and the Z score is reported as 0.27.
With Cc1cc(N2CCN(c3cc(Cl)ccc3C)CC2)n2nc(-c3ccccc3)cc2n1 the “% Inhibition” value was 0% and the Z score was -0.08.
For Cc1[nH]nc(CCc2nc(-c3ccco3)nn2[C@H]2CCS(=O)(=O)C2)c1C, the “% Inhibition” value was -6% and the Z score was 0.76.
CC(C)c1nsc(CN2CCN(Cc3cn[nH]c3)CC2)n1 was tested, and the “% Inhibition” value was 0% and the Z score was 0.01.
For CN1CCN(C[C@]2(O)CCCN(Cc3ccc(F)cc3)C2=O)CC1, the “% Inhibition” value was -11% and the Z score was 1.46.
For O=C1C[C@H](c2noc(C3(n4cnnn4)CC3)n2)CN1c1ccccc1, the “% Inhibition” value was 7% and the Z score was -1.03.
With Cc1cccc(OC2CN(CCC(=O)NC3CC3)C2)c1 the “% Inhibition” value was -4% and the Z score was 0.6.
For Cc1nc(N2CCC[C@H]2C2CCCC2)c2cnn(C)c2n1, the “% Inhibition” value was -3% and the Z score was 0.59.

From ChEMBL document CHEMBL4888484, “Replenishing the malaria drug discovery pipeline: Screening and hit evaluation of the MMV Hit Generation Library 1 (HGL1) against asexual blood stage Plasmodium falciparum ,using a nano luciferase reporter read-out” (2022)
